The record followed here is paper PMC4755543.

Sequences of proteins named here, by UniProt entry; tags and fusion partners are left off. A change or cut given only in a name is not applied to a line headed by its entry.
UniProt Q00839: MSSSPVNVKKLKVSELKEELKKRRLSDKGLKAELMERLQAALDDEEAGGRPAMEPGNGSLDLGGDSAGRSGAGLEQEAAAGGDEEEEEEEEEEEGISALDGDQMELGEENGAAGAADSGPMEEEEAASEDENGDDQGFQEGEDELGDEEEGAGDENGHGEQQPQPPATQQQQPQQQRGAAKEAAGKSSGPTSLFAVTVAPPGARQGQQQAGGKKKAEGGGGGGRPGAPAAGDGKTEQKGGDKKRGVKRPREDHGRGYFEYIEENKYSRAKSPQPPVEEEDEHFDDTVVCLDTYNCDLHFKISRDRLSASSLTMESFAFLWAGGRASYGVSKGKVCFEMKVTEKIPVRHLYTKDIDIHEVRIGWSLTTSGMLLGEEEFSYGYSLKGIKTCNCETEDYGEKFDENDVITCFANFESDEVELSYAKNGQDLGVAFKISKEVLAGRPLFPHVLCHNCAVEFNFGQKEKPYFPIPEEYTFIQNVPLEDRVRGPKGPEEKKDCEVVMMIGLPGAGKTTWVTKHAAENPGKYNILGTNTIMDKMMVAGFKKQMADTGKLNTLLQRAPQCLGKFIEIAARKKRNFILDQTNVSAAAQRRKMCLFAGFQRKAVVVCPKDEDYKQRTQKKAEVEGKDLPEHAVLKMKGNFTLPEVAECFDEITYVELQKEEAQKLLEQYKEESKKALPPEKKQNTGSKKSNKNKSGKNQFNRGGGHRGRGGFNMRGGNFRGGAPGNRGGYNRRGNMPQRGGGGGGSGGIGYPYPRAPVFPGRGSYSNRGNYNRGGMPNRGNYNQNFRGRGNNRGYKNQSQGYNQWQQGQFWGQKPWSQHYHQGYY
UniProt Q5EE01: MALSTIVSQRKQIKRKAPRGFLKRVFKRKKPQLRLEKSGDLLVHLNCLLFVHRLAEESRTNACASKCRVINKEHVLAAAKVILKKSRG
UniProt Q9HBM1: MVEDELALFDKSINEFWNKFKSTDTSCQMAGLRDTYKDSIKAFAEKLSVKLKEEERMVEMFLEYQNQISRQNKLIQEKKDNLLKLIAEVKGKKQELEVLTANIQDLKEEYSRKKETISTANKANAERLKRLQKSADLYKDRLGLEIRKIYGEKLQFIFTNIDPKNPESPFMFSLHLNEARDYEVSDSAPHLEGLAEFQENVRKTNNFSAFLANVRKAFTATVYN
UniProt Q8NBT2: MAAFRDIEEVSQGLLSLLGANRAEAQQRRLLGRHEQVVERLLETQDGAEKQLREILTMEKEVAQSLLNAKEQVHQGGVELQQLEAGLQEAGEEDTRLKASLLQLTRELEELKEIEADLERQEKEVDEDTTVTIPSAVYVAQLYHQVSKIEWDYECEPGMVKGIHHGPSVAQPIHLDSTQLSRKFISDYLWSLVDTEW
UniProt Q96BT3: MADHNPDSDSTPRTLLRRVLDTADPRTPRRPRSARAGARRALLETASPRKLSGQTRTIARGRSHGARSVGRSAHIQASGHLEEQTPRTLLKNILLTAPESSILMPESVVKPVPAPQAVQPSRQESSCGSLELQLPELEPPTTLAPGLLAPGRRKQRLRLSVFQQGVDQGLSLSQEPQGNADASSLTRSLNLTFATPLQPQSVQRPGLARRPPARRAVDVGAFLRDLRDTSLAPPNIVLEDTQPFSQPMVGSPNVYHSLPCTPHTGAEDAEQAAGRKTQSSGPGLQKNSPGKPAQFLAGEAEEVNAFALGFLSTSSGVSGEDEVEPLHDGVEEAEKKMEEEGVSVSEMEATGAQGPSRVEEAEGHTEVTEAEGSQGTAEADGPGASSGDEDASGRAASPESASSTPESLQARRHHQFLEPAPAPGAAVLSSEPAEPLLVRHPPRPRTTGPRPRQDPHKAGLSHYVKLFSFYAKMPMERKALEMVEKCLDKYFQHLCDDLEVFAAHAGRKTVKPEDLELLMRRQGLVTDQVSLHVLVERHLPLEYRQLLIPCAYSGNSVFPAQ

Assay [1] concerns the target GST-hnRNP U (expressed in 293T cells) (human) (UniProt Q00839). Put plainly: pull-down; GST fusion and FLAG-tagged partner co-transfected in 293T cells; lysates incubated with glutathione agarose beads; immunoblot. Background: In western blotting, separated proteins are transferred to a membrane and probed.
The target of assay [2] is endogenous CENP-W (293T cells) (human (endogenous in 293T)) (UniProt Q5EE01). In words: co-IP; Endogenous proteins; 293T cell lysates immunoprecipitated with anti-CENP-W or anti-hnRNP U antibody (1 ug, 2 h, 4°C); immunoblot.
Assay [3] addresses GST-CENP-W (expressed in E. coli) (human) (UniProt Q5EE01). Put plainly: pull-down; His-HA-SPC25 and GST-CENP-W expressed in E. coli; bacterial lysates used for GST pull-down.
For assay [4], the target named is HA-SPC25 (expressed in 293T cells) (human) (UniProt Q9HBM1). Put plainly: co-IP; 293T cells transfected with HA-SPC25 or HA-SPC24, GST-CENP-W and FLAG-hnRNP U; immunoprecipitation with anti-HA antibody.
Assay [5] concerns the target HA-SPC24 (expressed in 293T cells) (human) (UniProt Q8NBT2). The description is as above.
For assay [6], the target named is His-HA-SPC25 (expressed in E. coli) (human) (UniProt Q9HBM1). Put plainly: co-IP; E. coli lysates with His-CENP-T, His-HA-SPC25 and GST-CENP-W; immunoprecipitation with anti-HA antibody.
For assay [7], the target named is endogenous hnRNP U (293T cells) (human (endogenous in 293T)) (UniProt Q00839). Put plainly: co-IP; Endogenous proteins; 293T cell lysates immunoprecipitated with anti-CENP-W or anti-hnRNP U antibody (1 ug, 2 h, 4°C); immunoblot.

These are yes or no findings as the source states them, for the method shown. In cells and extracts the contact can be indirect. Some binding calls cover weakened binding; strength is not graded here.

For the substance “FLAG-CENP-W (transiently expressed in 293T cells) (from UniProt Q5EE01 1-88)”, in assay [1], the binding entry is “binds”.
As for “endogenous CENP-T (293T cells) (from UniProt Q96BT3 1-561)”, in assay [2], the binding entry was “binds”.
“His-HA-SPC25 (expressed in E. coli) (from UniProt Q9HBM1 1-224)”: the binding result in assay [3] is “binds”.
For “FLAG-CENP-W deletion mutant (1-30) (expressed in 293T cells) (from UniProt Q5EE01 1-30) (domain or fragment)”, the binding result in assay [1] is reported as “no binding”.
Consider “GST-CENP-W (expressed in 293T cells) (from UniProt Q5EE01 1-88)”, for which the binding result in assay [4] and in assay [5] was “binds” throughout.
Consider “endogenous SPC25 (293T cells) (from UniProt Q9HBM1 1-224)”, for which, in assay [2], the binding entry is given as “binds”.
For “GST-CENP-W (expressed in E. coli) (from UniProt Q5EE01 1-88)”, the binding entry in assay [6] was “binds”.
Turning to “endogenous CENP-W (293T cells) (from UniProt Q5EE01 1-88)”, in assay [7], the binding result was “binds”.
